# In article PMC4336329 (PLoS ONE, 2015):
# About 14,000 (4.5%) of roughly 310,000 compounds showed an effect of 50% or more. The effect is printed as a negative number. Some of the results follow.
# Biological target: human ether-à-go-go-related gene (hERG) potassium channel (human, UniProt Q12809)
# Assay: primary screen, population patch clamp on CHO cells stably expressing hERG
# 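Further: peak tail current of the secondary pulse compared with the same well before compound.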
# human ether-à-go-go-related gene (hERG) potassium channel, sequence (Q12809 whole entry, looked up): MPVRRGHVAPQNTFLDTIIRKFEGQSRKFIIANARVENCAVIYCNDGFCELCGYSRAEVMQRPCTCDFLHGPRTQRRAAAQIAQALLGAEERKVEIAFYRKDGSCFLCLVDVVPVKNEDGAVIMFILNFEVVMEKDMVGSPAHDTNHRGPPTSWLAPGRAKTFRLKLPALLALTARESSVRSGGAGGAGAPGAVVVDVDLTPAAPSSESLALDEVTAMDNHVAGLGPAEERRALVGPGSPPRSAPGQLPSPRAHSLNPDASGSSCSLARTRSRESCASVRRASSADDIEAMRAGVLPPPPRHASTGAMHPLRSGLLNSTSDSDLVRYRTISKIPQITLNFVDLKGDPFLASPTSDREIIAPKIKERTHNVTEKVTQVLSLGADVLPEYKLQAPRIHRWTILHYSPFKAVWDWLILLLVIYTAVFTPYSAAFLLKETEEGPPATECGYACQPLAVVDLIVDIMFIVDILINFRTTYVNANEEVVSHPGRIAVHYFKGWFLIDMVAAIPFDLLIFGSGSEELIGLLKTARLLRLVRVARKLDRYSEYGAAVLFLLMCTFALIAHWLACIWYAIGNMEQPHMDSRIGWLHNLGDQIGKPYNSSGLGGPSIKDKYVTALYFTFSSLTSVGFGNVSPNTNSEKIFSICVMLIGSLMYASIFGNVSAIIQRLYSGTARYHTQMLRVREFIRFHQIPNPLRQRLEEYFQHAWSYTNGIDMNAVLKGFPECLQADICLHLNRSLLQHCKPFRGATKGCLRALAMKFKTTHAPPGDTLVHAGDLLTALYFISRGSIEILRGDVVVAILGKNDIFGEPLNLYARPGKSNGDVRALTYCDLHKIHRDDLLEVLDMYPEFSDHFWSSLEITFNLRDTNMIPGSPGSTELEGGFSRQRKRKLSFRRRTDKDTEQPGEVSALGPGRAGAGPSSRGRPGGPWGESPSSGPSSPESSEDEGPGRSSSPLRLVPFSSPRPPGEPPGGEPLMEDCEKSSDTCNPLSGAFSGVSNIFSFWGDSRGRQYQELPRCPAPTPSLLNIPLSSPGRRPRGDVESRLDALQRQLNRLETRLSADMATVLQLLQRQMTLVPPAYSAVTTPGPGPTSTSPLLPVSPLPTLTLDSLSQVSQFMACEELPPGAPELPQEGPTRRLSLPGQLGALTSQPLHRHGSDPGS
row,SMILES,"hERG current change (%, negative = inhibition) at 10uM"
1,CC1CCc2cc(F)ccc2N1C(=O)c1cccs1 (centres unmarked),8.06%
2,O=C(NC1CCCCCC1)C1CCC(=O)N(Cc2ccccc2F)C1 (centres unmarked),4.73%
3,Cc1ccc(C(=O)/C=C/c2ccc(F)cc2)o1,-8.48%
4,C=CCn1c(Cc2cccs2)nnc1SCC(=O)Nc1cccc(OC)c1,-15.1%
5,COC(=O)[C@H]1[C@@H](C)N(Cc2ccccc2)C(=O)N[C@H]1c1cccc(C(F)(F)F)c1,-4.26%
6,CCN(CC)CCCN=C(C)C1=C(O)c2ccccc2C1=O,-41.2%
7,O=C1N/C(=C\c2nc3ccccc3s2)c2ccccc21,8.56%
8,O=C(NC1CC1)c1sc2ccccc2c1Cl,10.7%
9,CCOc1cc(C)c(Cl)cc1S(=O)(=O)NCc1ccco1,2.98%
10,CCCCCCCNC(=O)C1(CC2CC(c3cccc(Br)c3)=NO2)CCN(C(=O)c2ccccc2)CC1 (centres unmarked),-71%
11,O=c1c2ccccc2ncn1CCCCOc1ccccc1F,-13.7%
12,O=C(c1ccc2c(c1)OCO2)N1CCN(c2ccccn2)CC1,-5.9%
13,O=C(COC(=O)c1ccccc1)Nc1ccc(Cl)cc1C(=O)c1ccccc1,5.86%
14,CCC(=O)N1CCc2cc(S(=O)(=O)NCCC(=O)N3CC=C(c4ccccc4)CC3)ccc21,-10.3%
15,CCn1c2ccccc2c2cc(NC(=O)COC(=O)c3ccccc3O)ccc21,20.9%
16,CCOC(=O)c1[nH]cnc1C(=O)NC1CCN(C(=O)OC(C)(C)C)CC1,9.17%
17,CCOc1cc(NC(=O)CC(C)C)c(OCC)cc1NC(=O)CCn1nnc2ccccc21,10.1%
18,COCCn1c(N/N=C(C)/C=C/c2ccccc2)nc2c1c(=O)[nH]c(=O)n2C,-4.1%
19,CCOc1ccc(N(CC(=O)N2CCc3ccccc32)S(=O)(=O)c2c(C)noc2C)cc1,-4.59%

row,SMILES,"hERG current change (%, negative = inhibition) at 10uM"
1,Cc1ccc(OCC(O)Cn2c(N)nc3c2c(=O)n(C)c(=O)n3C)cc1 (centres unmarked),-12.7%
2,Cc1cccc(Cn2cnc3c(NS(C)(=O)=O)c(C)c(C)cc32)c1,11%
3,CC1(c2ccccc2)CC(C)(C)N(C(N)=O)c2ccccc21 (centres unmarked),-10.4%
4,Cc1cc(=O)oc(C)c1C(=O)NCC1CCCO1 (centres unmarked),-6.89%
5,COc1cccc(C(=O)N2CCC(n3nccc3NC(=O)C(OC)c3ccccc3)CC2)c1 (centres unmarked),-1.12%
6,COc1ccc(/C=C/C(=O)Nc2nonc2NC(C)=O)cc1,17.7%
7,O=c1c2ccccc2oc2cc(C#Cc3ccccn3)ccc12,7.36%
8,Cc1ccc(S(=O)(=O)NCCC(=O)NCc2ccccc2)cc1,-1.91%
9,O=C1N/C(=N/S(=O)(=O)Cc2ccccc2)S/C1=C/c1ccc2c(c1)OCO2,0.744%
10,CC1=Nc2ccc(C)cc2/C1=C/c1c(N)n2nc(CC(=O)N3CCOCC3)sc2nc1=O,20.2%
11,C=CCN1C(=O)/C(=C/c2ccsc2)SC1=S,21.5%
12,CCSc1nsc(NC(=O)Nc2ccccc2OC)n1,10.5%
13,COc1ccc(-n2c(Cc3ccccc3)nnc2SCC(=O)N2CCCc3ccccc32)cc1,-53.9%
14,CCn1cc(/C=N\NC(=O)COc2cccc(C)c2C)c(C)n1,-22.6%
15,O=C(c1ccncc1)N(Cc1cc2ccccc2[nH]c1=O)C1CCCCC1,-2.86%
16,Cc1cccc(NC(=O)CN2C(=O)N/C(=C/c3cc(C)n(-c4cccnc4)c3C)C2=O)c1,18.8%
17,O=C(CCn1nnc2ccccc2c1=O)N[C@@H](Cc1ccccc1)C(=O)O,5.05%
18,O=C(N1CCOCC1)N1CCN(S(=O)(=O)N2CCOCC2)CC1,11.3%
19,Cc1cccc(OCCCC(=O)Nc2ccc(N3CCCCC3)cc2)c1C,11.5%

row,SMILES,"hERG current change (%, negative = inhibition) at 10uM"
1,Cc1nonc1CC(=O)N1CCCC(C(=O)c2ccc(Cl)cc2)C1 (centres unmarked),-8.66%
2,CSc1cccc(NC(=O)CSc2ccc(C)cc2)c1,9.17%
3,Cc1ccc(NC2(C#N)C(=O)Nc3ccccc32)cc1 (centres unmarked),5.81%
4,COc1ccc(OC)c(-n2c(-c3ccc(S(C)(=O)=O)cc3)cc(C=O)c2C)c1,-32.4%
5,C[n+]1ccc(/C=N/Nc2nc(Cl)c(C#N)c(Cl)c2Cl)cc1.[Cl-],20.2%
6,CC(C)Nc1c(N)c(=O)oc2ccccc12,9.17%
7,CCC(=O)c1cn(CC(=O)Nc2cccc(C)c2)c2ccccc12,11%
8,O=C(/C=C/Nc1ccc(F)c(Cl)c1)c1ccccc1,16.8%
9,CCOC(=O)C1CCN(Cc2cc(=O)oc3cc(C)ccc23)CC1,-47.8%
10,CC(OC(=O)CC1CC2CCC1C2)C(=O)Nc1ccc(N2CCOCC2)cc1 (centres unmarked),6.7%
11,CCO.O=c1[nH]c(NNC(=S)NC2CCCCC2)nc2c1C1(CCCC1)Cc1ccccc1-2,8.58%
12,O=C(c1cc2ccccc2oc1=O)N1CCN(Cc2ccc3c(c2)OCO3)CC1,-53.7%
13,O=C(Nc1ccc(F)c(F)c1)C1CCCN1S(=O)(=O)c1ccc(F)cc1 (centres unmarked),10.5%
14,CN(CC(=O)Nc1ccc(Cl)c(Cl)c1)Cc1nnc(-c2ccc(F)cc2)o1,-63.3%
15,O=C(N/N=C/C1C(c2ccccc2)C1(Cl)Cl)c1cccc(Cl)c1 (centres unmarked),-14.5%
16,COc1ccc(NC(=O)CN(C)C(=O)c2ccc(N3CCCCC3)c([N+](=O)[O-])c2)cc1,-76.8%
17,CCCc1nc2ccccc2c(=O)n1CC(=O)c1ccc(F)cc1,6.68%
18,O=C(CC(c1ccccc1)c1ccccc1)Nc1ccc2c(c1)OCCO2,-9.02%
